# Results published in PubChem BioAssay (NCI).
#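 Compound exposure: 48 hours, 5 concentrations, 96-well plates. Abbreviation: GI50, concentration required for 50% inhibition of growth.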 Certain results were filed several times, with different values. They are shown here; other results are not. There may be further records. For some of these results: Values that stand side by side are repeats (runs, samples, wells, individuals or studies). Records carry a tag for their origin. The letters are not those of the source and start again with each entry.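 TGI: total growth inhibition.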 For some of these results: A record mostly stands for its own series of concentrations, not given here; a value can be the end of its range.
# Key:
# Assay in all cases: DTP human tumour cell line panel, 48 h
# HS 578T breast = test system: HS 578T breast
# CAKI-1 renal = test system: CAKI-1 renal
# UACC-257 melanoma = test system: UACC-257 melanoma
# HL-60(TB) leukemia = test system: HL-60(TB) leukemia
# UO-31 renal = test system: UO-31 renal
# MDA-MB-231 breast = test system: MDA-MB-231 breast
# TK-10 renal = test system: TK-10 renal
# HOP-62 NSCLC = test system: HOP-62 NSCLC
# EKVX NSCLC = test system: EKVX NSCLC
# OVCAR-5 ovarian = test system: OVCAR-5 ovarian
# MOLT-4 leukemia = test system: MOLT-4 leukemia
# SK-MEL-2 melanoma = test system: SK-MEL-2 melanoma
# SNB-78 CNS = test system: SNB-78 CNS
# 786-0 renal = test system: 786-0 renal
# IGROV1 ovarian = test system: IGROV1 ovarian
# PC-3 prostate = test system: PC-3 prostate
# MALME-3M melanoma = test system: MALME-3M melanoma
# KM12 colon = test system: KM12 colon
# BT-549 breast = test system: BT-549 breast
# K-562 leukemia = test system: K-562 leukemia
# SN12C renal = test system: SN12C renal
# RPMI-8226 leukemia = test system: RPMI-8226 leukemia
# NCI-H460 lung = test system: NCI-H460 lung
# NCI-H23 lung = test system: NCI-H23 lung
# SNB-75 CNS = test system: SNB-75 CNS
structure (smiles),measurement,setting,value
COc1cc2cc(C(=O)N3C[C@H](CCl)c4c3cc(N)c3ccccc43)[nH]c2c(OC)c1OC,TGI,HS 578T breast,1.8 µM and > 50 µM
C=CC(=O)Nc1cc2c(Nc3ccc(F)c(Cl)c3)ncnc2cc1OCCCN1CCOCC1,GI50,CAKI-1 renal,"62.3 nM [sample A, mean of 2 tests] and 756 nM [sample B, mean of 2 tests]"
C/C=C1\NC(=O)[C@H]2CSSCCC=C[C@H](CC(=O)N[C@H](C(C)C)C(=O)N2)OC(=O)[C@H](C(C)C)NC1=O,TGI,UACC-257 melanoma,"54.3 nM [sample A, mean of 6 tests] and 3.11 nM [sample A, mean of 9 tests] and < 10 nM [sample B, mean of 2 tests]"
same,TGI,HL-60(TB) leukemia,"2.26 nM [sample A, mean of 10 tests] and < 44.1 nM [sample A, mean of 2 tests] and 1.19 µM [sample B, 1 test]"
same,TGI,UO-31 renal,"28.9 nM, 68.8 nM [sample A] and 987 nM [sample B]"
same,TGI,MDA-MB-231 breast,"7.13 nM, < 37.6 nM [sample A] and 85.4 nM [sample B]"
same,TGI,TK-10 renal,"25.8 nM, 113 nM [sample A] and < 10 nM [sample B]"
same,TGI,HOP-62 NSCLC,"39.3 nM, < 25.9 nM [sample A] and 1.13 µM [sample B]"
same,TGI,EKVX NSCLC,"85.5 nM, 728 nM [sample A] and 1.68 µM [sample B]"
same,TGI,OVCAR-5 ovarian,"< 13.3 nM [sample A, mean of 4 tests] and 0.559 nM [sample A, mean of 7 tests] and 470 nM [sample B, mean of 2 tests]"
same,TGI,MOLT-4 leukemia,"15.5 nM, 47 nM [sample A] and 186 nM [sample B]"
same,TGI,SK-MEL-2 melanoma,"40.5 nM [sample A, mean of 5 tests] and 0.855 nM [sample A, mean of 9 tests] and < 10 nM [sample B, mean of 2 tests]"
same,TGI,SNB-78 CNS,99.2 nM and 1.03 µM
same,TGI,786-0 renal,"92.2 nM [sample A, mean of 10 tests] and 373 nM [sample A, mean of 4 tests] and 2.69 µM [sample B, mean of 2 tests]"
same,TGI,IGROV1 ovarian,"2.24 nM [sample A, mean of 9 tests] and 241 nM [sample B, mean of 2 tests]"
same,TGI,PC-3 prostate,"51.6 nM, < 39.1 nM [sample A] and 1.19 µM [sample B]"
same,TGI,MALME-3M melanoma,"57.3 nM [sample A, mean of 6 tests] and 0.0258 nM [sample A, mean of 7 tests] and 944 nM [sample B, mean of 2 tests]"
same,TGI,KM12 colon,"4.14 nM, 111 nM [sample A] and < 10 nM [sample B]"
same,TGI,BT-549 breast,"209 nM [sample A, mean of 2 tests] and 0.156 nM [sample A, mean of 6 tests] and 243 nM [sample B, mean of 2 tests]"
same,TGI,K-562 leukemia,"97.8 nM [sample A, mean of 6 tests] and 24.3 nM [sample A, mean of 9 tests] and 1.01 µM [sample B, 1 test]"
same,TGI,SN12C renal,"6.69 nM, 28.5 nM [sample A] and 362 nM [sample B]"
same,TGI,RPMI-8226 leukemia,"2.71 nM, 73.8 nM [sample A] and 128 nM [sample B]"
same,TGI,NCI-H460 lung,"31.6 nM, 51.4 nM [sample A] and 1.2 µM [sample B]"
same,TGI,NCI-H23 lung,"5.08 nM, 164 nM [sample A] and 126 nM [sample B]"
same,TGI,SNB-75 CNS,"31.9 nM, 440 nM [sample A] and 1.61 µM [sample B]"
COc1cc2ncnc(Nc3ccc(F)c(Cl)c3)c2cc1NC(=O)/C=C/CN1CCCCC1,GI50,CAKI-1 renal,"14.3 nM [sample A, 1 test] and 257 nM [sample B, mean of 2 tests]"
same,GI50,UO-31 renal,"543 nM [sample A, mean of 2 tests] and 26.2 nM [sample B, mean of 2 tests]"
same,GI50,IGROV1 ovarian,"342 nM [sample A, 1 test] and 11.7 nM [sample B, mean of 2 tests]"
